Test results as given in article PMC4336329 (PLoS ONE, 2015).
In all, about 310,000 compounds went through this assay and about 2,200 (0.71%) showed an effect of 50% or more. The effect is printed as a negative number. The list shows a part of the results.

target: human ether-à-go-go-related gene (hERG) potassium channel (human, UniProt Q12809); experiment: primary screen, population patch clamp on CHO cells stably expressing hERG
Sequence (Q12809 whole entry, looked up): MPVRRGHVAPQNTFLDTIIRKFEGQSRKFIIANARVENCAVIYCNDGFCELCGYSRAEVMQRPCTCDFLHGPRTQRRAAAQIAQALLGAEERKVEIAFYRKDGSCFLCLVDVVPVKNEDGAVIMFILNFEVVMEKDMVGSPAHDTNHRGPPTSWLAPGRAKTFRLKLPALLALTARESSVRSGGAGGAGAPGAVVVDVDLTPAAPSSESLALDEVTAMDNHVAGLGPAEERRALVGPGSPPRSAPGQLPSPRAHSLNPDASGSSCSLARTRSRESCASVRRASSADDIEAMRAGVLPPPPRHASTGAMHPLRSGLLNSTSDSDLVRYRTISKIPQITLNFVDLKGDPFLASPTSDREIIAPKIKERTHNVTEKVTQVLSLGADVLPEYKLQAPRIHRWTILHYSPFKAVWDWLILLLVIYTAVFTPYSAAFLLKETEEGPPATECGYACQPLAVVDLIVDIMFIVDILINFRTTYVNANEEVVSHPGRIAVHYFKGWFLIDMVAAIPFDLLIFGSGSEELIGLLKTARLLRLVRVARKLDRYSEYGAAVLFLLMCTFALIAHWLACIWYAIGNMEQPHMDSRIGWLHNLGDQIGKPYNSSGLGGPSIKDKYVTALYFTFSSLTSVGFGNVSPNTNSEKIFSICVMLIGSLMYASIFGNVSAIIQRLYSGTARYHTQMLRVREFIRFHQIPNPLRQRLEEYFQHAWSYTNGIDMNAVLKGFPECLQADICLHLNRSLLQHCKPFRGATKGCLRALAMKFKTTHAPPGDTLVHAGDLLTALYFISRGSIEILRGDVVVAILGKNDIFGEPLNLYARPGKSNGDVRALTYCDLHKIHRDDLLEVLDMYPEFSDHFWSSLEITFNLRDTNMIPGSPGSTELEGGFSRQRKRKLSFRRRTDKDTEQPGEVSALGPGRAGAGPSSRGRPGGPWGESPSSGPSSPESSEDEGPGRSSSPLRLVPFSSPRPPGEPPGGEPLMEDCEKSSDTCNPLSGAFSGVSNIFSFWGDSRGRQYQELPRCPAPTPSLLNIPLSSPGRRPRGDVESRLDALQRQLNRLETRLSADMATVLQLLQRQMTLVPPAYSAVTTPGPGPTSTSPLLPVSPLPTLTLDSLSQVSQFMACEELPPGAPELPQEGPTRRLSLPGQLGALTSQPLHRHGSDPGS

Going from N#CNC(=Nc1ccccc1F)SCc1ccc(C(=O)O)cc1 to CC/C(=N\NC(=O)c1ccc2c(c1)OCO2)c1ccccc1, the “hERG current change (%, negative = inhibition) at 1uM” value rises from 2.33% to 13.8%.

Going from O=C1NC(Cc2ccccc2)c2nc3cc(F)ccc3c(=O)n2-c2ccc(Cl)cc21 (centres unmarked) to CC(=O)Nc1ccc2c(c1)nc(C)n2Cc1ccccc1, the “hERG current change (%, negative = inhibition) at 1uM” value falls from 16.1% to 9.44%.

First: Cn1cc(-c2nnnn2-c2cccc(C(F)(F)F)c2)c(C(F)(F)F)n1
Second: Cc1ccc(NC(=O)Nc2cccc(C(F)(F)F)c2)nc1
The “hERG current change (%, negative = inhibition) at 1uM” value of the first is lower: 3.49% for the first, 18.5% for the second.

Compared with Cc1ccccc1C(=O)c1cccn1CC(=O)NCc1ccco1, Cc1ccccc1OCC(=O)Nc1ccccc1NC(=O)c1ccco1 is higher in “hERG current change (%, negative = inhibition) at 1uM” value: 7.07% for the first, 15% for the second.

Going from NC(=O)CC(NC(=O)c1ccc(Br)cc1)c1ccc(N2CCC(Br)CC2)c([N+](=O)[O-])c1 (centres unmarked) to O=C(Nc1cc([N+](=O)[O-])ccc1N1CCOCC1)c1ccco1, the “hERG current change (%, negative = inhibition) at 1uM” value falls from 2.36% to -5.22%.

First: Cc1cnc(NC(=O)COc2ccc3c(c2)CCC3)s1
Second: COc1ccc(CCC(=O)Nc2cc3c4c(c2)CC(=O)N4CCC3)cc1
The “hERG current change (%, negative = inhibition) at 1uM” value of the first is higher: 7.35% for the first, -3.39% for the second.

First: Cc1nn(C)c(C)c1CS(=O)(=O)c1ccccc1
Second: Cc1noc(C)c1CSCC(=O)Oc1ccc(N(C)S(=O)(=O)c2ccccc2)cc1
The “hERG current change (%, negative = inhibition) at 1uM” value of the first is higher: 11.3% for the first, 9.9% for the second.

Going from Cc1ccc(CSCC(=O)Nc2ccc(N3CCOCC3)cc2N2CCOCC2)cc1 to Clc1cc(NCc2cccs2)ccc1N1CCOCC1, the “hERG current change (%, negative = inhibition) at 1uM” value rises from -3.89% to 13.1%.

Going from CCn1c(C)[n+](CCCS(=O)(=O)[O-])c2cc(Cl)c(Cl)cc21 to CCn1c(Cc2ccccc2)nnc1SCC(=O)Nc1ccc(S(N)(=O)=O)cc1, the “hERG current change (%, negative = inhibition) at 1uM” value falls from 15.8% to 6.94%.

First: COc1cc(NC(=O)C(c2ccccc2)c2ccccc2)c(C(=O)O)cc1OC
Second: COc1ccccc1Nc1c2ccccc2nc2ccccc12
The “hERG current change (%, negative = inhibition) at 1uM” value of the first is higher: 16.1% for the first, -18.4% for the second.

Going from COc1cccc(NC(=O)C2CCCN2S(=O)(=O)c2ccc3c(c2)n(C)c(=O)c(=O)n3C)c1 (centres unmarked) to COc1ccc(S(=O)(=O)N2CCCC(C(=O)O)C2)cc1 (centres unmarked), the “hERG current change (%, negative = inhibition) at 1uM” value falls from 14.4% to -0.0757%.

Going from CN(C)c1ccc(/C=C2\NC(=S)N(Cc3ccccc3)C2=O)cc1 to O=C1CSC(c2cn(-c3ccccc3)nc2-c2ccccc2)N1Cc1ccco1 (centres unmarked), the “hERG current change (%, negative = inhibition) at 1uM” value falls from 11.7% to 4.68%.

First: O=C(CSc1ncnc2c1oc1ccccc12)N1CCN(c2ccccc2)CC1
Second: Nn1c(SCC(=O)N2CCCc3ccccc32)nnc1-c1ccc(Cl)cc1
The “hERG current change (%, negative = inhibition) at 1uM” value of the first is lower: 5.87% for the first, 10.5% for the second.

Compared with O=C(COc1ccc(S(=O)(=O)NC2CCCCC2)cc1Cl)NCc1ccc2c(c1)OCO2, O=C(Nc1ccc2c(c1)OCO2)C1CC(c2ccc(Cl)cc2)=NO1 (centres unmarked) is lower in “hERG current change (%, negative = inhibition) at 1uM” value: 10.3% for the first, 4.23% for the second.

Compared with CCOC(=O)c1cc(CC)sc1/N=C/C1=C(O)CCCC1=O, CC1=C(C(=O)OCCOC(C)C)C(c2cc3c(cc2Br)OCO3)C2=C(CCCC2=O)N1 (centres unmarked) is higher in “hERG current change (%, negative = inhibition) at 1uM” value: 4% for the first, 7.15% for the second.

Compared with Cc1ccc(C2=NN(C(=O)CNCCO)C(c3cccs3)C2)cc1 (centres unmarked), COc1ccc(-c2csc(NC(=O)C3=NN(c4ccccc4)C(=O)CC3)n2)cc1 is higher in “hERG current change (%, negative = inhibition) at 1uM” value: 7.04% for the first, 7.49% for the second.

Going from N#C/C(=C\c1cccnc1)c1ccc(Br)cc1 to Cn1c(SCC(=O)NNC(=O)c2ccc(Cl)cc2)nnc1-c1cccnc1, the “hERG current change (%, negative = inhibition) at 1uM” value rises from -1.9% to 21.8%.

Compared with Cl.c1cc2n(c1)-c1c(ccc3c1OCO3)CNC2c1ccc2c(c1)OCO2 (centres unmarked), Cc1ccc(S(=O)(=O)N(Cc2cc3ccccc3[nH]c2=O)CC2CCCO2)cc1 (centres unmarked) is higher in “hERG current change (%, negative = inhibition) at 1uM” value: 0.451% for the first, 11.7% for the second.

First: COC(=O)[C@@H](NC(=O)CCc1nnc(-c2ccsc2)o1)C(C)C
Second: O=C(CN1C(=O)C2CCCCC2C1=O)OCc1nnc(-c2ccccc2)o1 (centres unmarked)
The “hERG current change (%, negative = inhibition) at 1uM” value of the first is higher: 9.32% for the first, 8.04% for the second.

First: Cc1oc(-c2cccs2)nc1CN1CCC(c2ccccc2)CC1
Second: COc1cccc(CN2CCN(CCc3ccccc3)C(CCO)C2)c1OC (centres unmarked)
The “hERG current change (%, negative = inhibition) at 1uM” value of the first is lower: -23.4% for the first, -3.13% for the second.

First: Cc1nc(CCNC(=O)CC2C(=O)NCCN2CC(C)(C)C)nc2c1CCC2 (centres unmarked)
Second: COc1ccc(NC(=O)Cn2nc(C(F)(F)F)c3c2CCCC3)c(OC)c1
The “hERG current change (%, negative = inhibition) at 1uM” value of the first is lower: 2.12% for the first, 16.9% for the second.

Going from O=C1N=C(N2C=CC(=C3C=CNC=C3)C=C2)/C(=C/N=NC(=O)c2ccccc2O)S1 to Cc1cccc(/C(N)=N/OC(=O)N2c3ccccc3Sc3ccccc32)c1, the “hERG current change (%, negative = inhibition) at 1uM” value falls from 11.5% to 8.73%.

Going from COc1ccccc1-c1cnn2c(NCCc3ccccc3)cc(C)nc12 to Cc1cccc(NC(=O)c2cc3ccccc3c(=O)o2)n1, the “hERG current change (%, negative = inhibition) at 1uM” value falls from 15% to 10.9%.

Going from Cc1cc(C)cc(N(C(=O)CNC(=O)c2ccco2)C(C(=O)NC2CCCCC2)c2ccncc2)c1 (centres unmarked) to O=C(CNC(=O)c1ccco1)OCC(=O)c1ccc2ccccc2c1, the “hERG current change (%, negative = inhibition) at 1uM” value rises from 1.38% to 7.52%.

First: CC(=O)N[C@H]1[C@H]([C@H](O)[C@H](O)CO)OC(C(=O)O)=C[C@@H]1O
Second: CCC(C)NCCOCCOc1ccc(C)cc1Br.O=C(O)C(=O)O (centres unmarked)
The “hERG current change (%, negative = inhibition) at 1uM” value of the first is higher: 4.04% for the first, 2.63% for the second.

First: Cc1cc(NC(=O)C(C)SCC(=O)Nc2ccccc2OC(F)F)no1 (centres unmarked)
Second: CSc1ccccc1NC(=O)CSc1nnnn1-c1ccccc1SC
The “hERG current change (%, negative = inhibition) at 1uM” value of the first is lower: 2.9% for the first, 4.36% for the second.

First: O=C1CCC(=O)N1CN(Cc1ccco1)CN1C(=O)CCC1=O
Second: Cc1ccccc1-n1nc2c(c1NC(=O)C1CCCC1)CS(=O)(=O)C2
The “hERG current change (%, negative = inhibition) at 1uM” value of the first is higher: 11% for the first, 7.54% for the second.

Compared with CC(=O)CC(=O)C1C(=O)N(C)C(=O)N(C)C1=O, COC(=O)c1ccccc1OCCCN(C)C.O=C(O)C(=O)O is lower in “hERG current change (%, negative = inhibition) at 1uM” value: 10.1% for the first, 6.69% for the second.

First: CCS(=O)(=O)n1nc(-c2ccc(OC)cc2)nc1N
Second: COc1cccc(C(=O)Nc2nnc(S(=O)(=O)N3CCCC3)s2)c1
The “hERG current change (%, negative = inhibition) at 1uM” value of the first is higher: 18.8% for the first, 14.6% for the second.

Going from Cc1nn2c(=S)[nH]nc2[nH]c1=O to COc1ccc(CCn2c(N)cc(=O)[nH]c2=O)cc1OC, the “hERG current change (%, negative = inhibition) at 1uM” value falls from 14.3% to -0.2%.

First: OCC1(Cc2ccc(F)cc2F)CCCN(CCCc2ccccc2)C1 (centres unmarked)
Second: NNC(=O)CCN1CCN(Cc2ccccc2)CC1
The “hERG current change (%, negative = inhibition) at 1uM” value of the first is lower: -56.1% for the first, 6.92% for the second.

First: O=C(COc1ccc(Cl)cc1Cl)Nc1nc2n(n1)C(c1ccccc1)CC(=O)N2 (centres unmarked)
Second: Cc1ccc(CCc2nnc(SCC(=O)Nc3cc(Cl)ccc3Cl)n2-c2ccccc2)o1
The “hERG current change (%, negative = inhibition) at 1uM” value of the first is lower: 1.52% for the first, 9.1% for the second.

Compared with CC(C)[C@H](NC(=O)N1CCn2c1nc1ccccc12)C(=O)N1CCCCC1, O=C(c1ccc(C(F)(F)F)cc1)N1CCCCC1 is lower in “hERG current change (%, negative = inhibition) at 1uM” value: 15.8% for the first, -4.21% for the second.

First: CC(C)(Oc1ccc(Cl)cc1)C(=O)NCCCn1ccnc1
Second: Cc1csc(NC(=O)CCCNC(=O)c2ccc(Cl)cc2)n1
The “hERG current change (%, negative = inhibition) at 1uM” value of the first is higher: 1.77% for the first, 0.256% for the second.

First: S=c1nc[nH]c2c1sc1nc(-c3ccccc3)c3c(c12)CCCC3
Second: Cc1cc(-c2ccccc2)nc(Oc2cccc(C(F)(F)F)c2)c1S(C)(=O)=O
The “hERG current change (%, negative = inhibition) at 1uM” value of the first is lower: -1.25% for the first, 6.46% for the second.

Going from O=C(Nc1cccc(C(F)(F)F)c1)C1CCCCC1 to C=CCn1c(O)c(C(CC)=Nc2cccc(C(F)(F)F)c2)c(=O)[nH]c1=O, the “hERG current change (%, negative = inhibition) at 1uM” value rises from 4.96% to 10.1%.

Compared with O=C(CCCCCn1c(=O)[nH]c2ccsc2c1=O)NCc1ccc(F)cc1, O=C(NCCc1c[nH]c2ccccc12)OCCCCOC(=O)NCCc1c[nH]c2ccccc12 is lower in “hERG current change (%, negative = inhibition) at 1uM” value: 15.9% for the first, 15.1% for the second.

Compared with Cc1ccc(NC(=O)c2c(C)nc(Nc3nc4ccccc4o3)nc2C)cc1, CC(C)CC(=O)Nc1cccc(-c2nc3ccccc3[nH]2)c1 is higher in “hERG current change (%, negative = inhibition) at 1uM” value: 6.99% for the first, 14.8% for the second.

First: CC(=O)c1ccc(NC(=O)C(C)OC(=O)CCCN=C2NS(=O)(=O)c3ccccc32)cc1 (centres unmarked)
Second: O=C(CCC(=O)OCc1ccc(C(=O)Oc2ccc(Cl)cc2)cc1)Nc1ccccc1
The “hERG current change (%, negative = inhibition) at 1uM” value of the first is higher: 21.5% for the first, 6.63% for the second.

Compared with COc1ccc2ccccc2c1C(O)c1nccn1C (centres unmarked), Cc1ccc(/C=C/c2ccc3cccc(O)c3n2)s1 is higher in “hERG current change (%, negative = inhibition) at 1uM” value: -7.69% for the first, 19.5% for the second.

Going from COc1ccc2c(CC(=O)NCc3cccs3)coc2c1 to COc1ccc2nc(C)cc(SCC(=O)Nc3c(C)cc(C)cc3C)c2c1, the “hERG current change (%, negative = inhibition) at 1uM” value rises from 2.68% to 3.56%.

First: O=P(O)(O)c1ccccc1OCCOCCOc1ccccc1P(=O)(O)O
Second: O=C(COC(=O)CNC(=O)c1ccc(Cl)cc1Cl)NNC(=O)c1ccccc1
The “hERG current change (%, negative = inhibition) at 1uM” value of the first is higher: 9.78% for the first, 1.9% for the second.

Compared with O=C(Cn1nnc2ccccc21)c1ccccc1, COc1ccc2nc(N(CCN(C)C)C(=O)c3ccc(C(=O)c4ccccc4)cc3)sc2c1.Cl is lower in “hERG current change (%, negative = inhibition) at 1uM” value: 0.747% for the first, -9.47% for the second.

First: Cc1ccc(Oc2ccc(S(=O)(=O)Nc3ccc(C(=O)O)cc3)cc2)cc1
Second: Clc1cccc(Cl)c1C1Nc2cccc3cccc(c23)N1
The “hERG current change (%, negative = inhibition) at 1uM” value of the first is lower: 2.61% for the first, 7.63% for the second.

With CCN(CC)c1ccc(C(NC(C)=O)NC(C)=O)cc1 the “hERG current change (%, negative = inhibition) at 1uM” value was -1.26%.
